# According to the GPR68 mutational scans of Howard et al. (2025):
# Scores whose standard error is large were omitted. The source holds two more conditions with little spread; they are left out. Names with del lack the residues named; names with ins carry added residues between the positions named. For some of these results: The concentration of ogerin is not given here.
# B1: GPR68, Q15743 (parent)
# chain: MGNITADNSSMSCTIDHTIHQTLAPVVYVTVLVVGFPANCLSLYFGYLQIKARNELGVYLCNLTVADLFYICSLPFWLQYVLQHDNWSHGDLSCQVCGILLYENIYISVGFLCCISVDRYLAVAHPFRFHQFRTLKAAVGVSVVIWAKELLTSIYFLMHEEVIEDENQHRVCFEHYPIQAWQRAINYYRFLVGFLFPICLLLASYQGILRAVRRSHGTQKSRKDQIQRLVLSTVVIFLACFLPYHVLLLVRSVWEASCDFAKGVFNAYHFSLLLTSFNCVADPVLYCFVSETTHRDLARLRGACLAFLTCSRTGRAREAYPLGAPEASGKSGAQGEEPELLTKLHPAFQTPNSPGSGGFPTGRLA
# Legend:
# [1] = variants of: B1; experiment: cAMP reporter score (Enrich2 score, wild type = 0); higher = more signal; HEK293T, FACS bins
# [2] = variants of: B1; experiment: surface expression score (Enrich2 score, wild type = 0); higher = more signal; HEK293T, FACS bins
Variant,cAMP reporter score ([1]; pH 5.5),cAMP reporter score ([1]; pH 6),"cAMP reporter score ([1]; pH 6, modulator: ogerin)","cAMP reporter score ([1]; pH 6.5, modulator: ogerin)",surface expression score [2]
E55S,-0.086,-0.042,-0.52,-0.546,1.93
E55N,-0.587,-0.081,-0.818,-0.551,2.73
E55K,-0.533,-0.211,-1.05,-1.15,-0.494
E55I,-1.33,-0.439,-0.956,-0.772,0.785
E55R,-0.086,-0.546,-0.671,-0.386,2.26
E55Q,-0.816,-0.426,-1.59,-1.33,2.01
E55Y,-0.773,-0.372,-0.844,-0.538,2.33
E55W,-0.966,-0.624,-1.1,-0.56,3.04
E55T,-0.485,-0.715,-0.882,-0.593,1.38
E55L,-0.898,-0.317,-1.05,-1.2,1.43
E55P,-0.098,0.019,-0.01,0.007,1.68
E55V,-0.499,0.012,-0.911,-0.411,2.31
E55M,-1.38,-0.767,-1.52,-1.22,-0.195
E55_L56del,-1.25,-1.46,-2.26,-1.47,-2.21
L60_N62del,-0.851,-0.939,-2.13,-1.12,-2.96
E55_L56insG,-1.68,-1.12,-2.27,-1.25,-0.101
C61del,-1.29,-1.21,-1.73,-1.24,-3.03
L63G,-1.81,–,-0.994,-0.151,-2.51
L63F,-1.89,–,-0.823,-1.87,-1.39
L63M,-0.575,0.142,-0.541,-0.531,-1
L63Q,-1.85,-1.51,-1.16,-2,-1.95
L63K,-0.644,-0.321,-0.889,-0.963,1.66

Variant,cAMP reporter score ([1]; pH 5.5),cAMP reporter score ([1]; pH 6),"cAMP reporter score ([1]; pH 6, modulator: ogerin)","cAMP reporter score ([1]; pH 6.5, modulator: ogerin)",surface expression score [2]
L63E,-1.15,-1.49,-1.78,-2.01,-2.15
L63D,-1.6,–,-1.29,-1.64,-3.08
L63R,-0.521,-0.299,-1.24,-0.61,-1.65
L63I,-0.08,-0.152,-0.281,-0.406,0.3
L63A,-0.175,1.58,-0.971,-1.01,–
L63N,-0.169,–,–,-0.538,-1.89
L63H,-0.948,-1.49,-1.8,-1.16,-2.64
L63P,-1.02,-0.536,-2.54,-0.95,-3.41
L63C,-0.91,-0.692,-1.41,-1.25,-2.24
V58_Y59insGSG,-1.34,-1.41,–,-0.755,-2.15
L60_C61insGS,-0.485,-0.664,-1.02,-0.441,–
N62del,-1.57,-1.14,-0.63,-0.805,-2.27
C61_N62insGS,-1.37,-1.02,-2.62,-1.52,-2.55
L60_C61insG,-1.01,-1.23,-1.08,-0.418,-2.99
E55del,-1.81,-0.854,-1.62,-1.34,-2.34
N62_L63del,-1.05,-1.55,-1.51,-0.945,-2.46
Y59_L60del,-0.949,-2.04,–,-1.03,-2.28
L56D,-0.79,–,–,-1.7,-1.83
L56S,-1.49,-0.703,-1.35,-1.33,-1.83
L56Q,-1.32,-0.622,–,-0.631,-3.35
L56T,-1.38,-0.938,-1.82,-0.858,-2.44
L56E,-2.07,-1.32,-0.938,-0.751,-2.4

Variant,cAMP reporter score ([1]; pH 5.5),cAMP reporter score ([1]; pH 6),"cAMP reporter score ([1]; pH 6, modulator: ogerin)","cAMP reporter score ([1]; pH 6.5, modulator: ogerin)",surface expression score [2]
L56I,0.338,-0.416,0.635,-0.908,0.417
L56M,0.676,1.39,-0.099,1.13,-0.795
L56N,-1.09,–,-1.41,-0.809,–
L56V,-1.25,–,-0.848,-0.088,0.3
L56C,-1.13,-1.32,-1.55,-1.06,-2.3
L56R,-2.11,-0.885,-1.59,-1.09,-1.53
L56K,-0.921,-1.69,-0.808,-0.622,-2.64
L56H,-1.14,0.349,-1.74,-1.75,-1.69
L56G,-1.3,-0.439,-1.5,-1.02,-2.51
L56F,-0.246,3.48,0.373,1.75,-2.32
L56W,0.093,0.228,-0.42,-0.143,-1.85
L56A,-1.31,–,-1.52,-0.76,-2.43
L56P,-2.15,-1.09,-1.2,-1.14,-1.92
L56_G57insG,-0.288,-0.948,-1.68,-0.578,-2.5
V58del,-0.688,-1.76,-1.22,-1.49,-1.66
C61_N62del,-1.04,-0.614,-2.03,-0.967,-1.87
C61_N62insGSG,-1.65,-1.42,-0.351,-0.563,-3.71
E55_L56insGS,0.357,-0.275,-0.308,0.543,2.86
E55_G57del,-0.704,-0.039,-0.606,0.247,-2.38
Y59del,-1.06,–,-1.37,–,–
